Assay in all cases: universal protein binding microarray (PBM)
Details in all cases: transcription factors of Arabidopsis thaliana; high values mean tight binding; most listed sequences are background and not binding sites; double strand, one strand shown

One test deals with GST-NTL6(1-168) (UniProt Q9SCK6).
In the next test the target is T1, GST-ANAC019 NAC domain (UniProt Q9C932).
T1 sequence: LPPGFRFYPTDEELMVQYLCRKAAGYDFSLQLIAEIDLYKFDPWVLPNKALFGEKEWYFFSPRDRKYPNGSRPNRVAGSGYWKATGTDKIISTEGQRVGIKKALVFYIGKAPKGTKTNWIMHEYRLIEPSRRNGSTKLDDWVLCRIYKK

In another test the target is T2, GST-ANAC055(1-171) (UniProt Q9LDY8).
T2 sequence: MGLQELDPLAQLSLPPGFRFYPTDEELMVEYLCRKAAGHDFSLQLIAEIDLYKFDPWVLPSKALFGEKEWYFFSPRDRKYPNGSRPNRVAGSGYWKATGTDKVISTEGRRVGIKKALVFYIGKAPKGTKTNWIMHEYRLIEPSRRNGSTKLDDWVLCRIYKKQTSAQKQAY

For another test, the target named is T3, GST-NTL8 NAC domain (UniProt Q9XIN7).
T3 sequence: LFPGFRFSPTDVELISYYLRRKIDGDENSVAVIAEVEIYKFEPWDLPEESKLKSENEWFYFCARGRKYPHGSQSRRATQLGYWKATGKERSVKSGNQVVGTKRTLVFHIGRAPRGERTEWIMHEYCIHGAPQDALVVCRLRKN

The target in a further test is T4, GST-VND3 NAC domain (UniProt Q9FH59).
T4 sequence: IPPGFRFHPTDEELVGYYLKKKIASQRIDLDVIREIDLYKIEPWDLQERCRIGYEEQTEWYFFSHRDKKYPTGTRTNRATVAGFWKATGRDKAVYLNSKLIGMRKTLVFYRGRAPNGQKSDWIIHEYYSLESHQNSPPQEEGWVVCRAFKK

In another test the target is T5, GST-VND7 NAC domain (UniProt Q9C8W9).
T5 sequence: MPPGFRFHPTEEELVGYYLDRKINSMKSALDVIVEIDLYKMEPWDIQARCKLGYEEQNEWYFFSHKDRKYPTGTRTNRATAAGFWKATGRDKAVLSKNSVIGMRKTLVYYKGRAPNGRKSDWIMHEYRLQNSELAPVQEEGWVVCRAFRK

In test [1] the target is T6, GST-VOZ2 (Arabidopsis thaliana) (UniProt Q9SLB9).
T6 sequence: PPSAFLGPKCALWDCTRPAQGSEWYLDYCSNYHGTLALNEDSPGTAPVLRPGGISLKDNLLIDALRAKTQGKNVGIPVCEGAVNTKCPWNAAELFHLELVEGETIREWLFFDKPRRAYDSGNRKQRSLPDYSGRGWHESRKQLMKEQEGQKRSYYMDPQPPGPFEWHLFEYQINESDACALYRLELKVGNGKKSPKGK

The next test concerns the target GST-WRKY1(266-371) (UniProt Q9SI37).
In another test the target is T7, GST-ATAF1 NAC domain (UniProt Q39013).
T7 sequence: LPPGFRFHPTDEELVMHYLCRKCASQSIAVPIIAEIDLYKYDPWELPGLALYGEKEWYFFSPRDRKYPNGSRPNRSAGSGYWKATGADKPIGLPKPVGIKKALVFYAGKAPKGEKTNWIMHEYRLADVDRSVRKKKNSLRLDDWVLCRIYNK

Test [2] deals with T8, GST-ANAC092(1-285) full length (UniProt Q9FKA0).
T8 sequence: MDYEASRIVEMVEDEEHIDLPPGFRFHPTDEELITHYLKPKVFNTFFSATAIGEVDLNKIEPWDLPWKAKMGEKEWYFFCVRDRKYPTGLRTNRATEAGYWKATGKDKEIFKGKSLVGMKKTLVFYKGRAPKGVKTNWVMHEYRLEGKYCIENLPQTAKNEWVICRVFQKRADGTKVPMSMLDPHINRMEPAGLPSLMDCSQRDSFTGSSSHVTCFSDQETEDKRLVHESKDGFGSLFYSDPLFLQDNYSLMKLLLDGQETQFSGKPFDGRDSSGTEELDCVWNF

The target in a further test is T9, GST-NAP(1-166) (UniProt O49255).
T9 sequence: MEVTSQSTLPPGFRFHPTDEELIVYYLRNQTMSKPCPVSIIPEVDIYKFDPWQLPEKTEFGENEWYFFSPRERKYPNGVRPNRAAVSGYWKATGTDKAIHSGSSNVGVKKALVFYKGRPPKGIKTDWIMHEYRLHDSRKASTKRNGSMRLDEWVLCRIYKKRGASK

Another test has as its target T10, GST-NST2(1-184) (UniProt Q9M274).
T10 sequence: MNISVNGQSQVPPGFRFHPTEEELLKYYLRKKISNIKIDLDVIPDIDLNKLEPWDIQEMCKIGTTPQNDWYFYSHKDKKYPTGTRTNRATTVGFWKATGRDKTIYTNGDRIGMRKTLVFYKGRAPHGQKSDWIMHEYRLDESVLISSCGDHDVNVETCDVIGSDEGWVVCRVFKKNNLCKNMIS

The target in another test is T11, GST-ANAC092(1-176) (UniProt Q9FKA0).
T11 sequence: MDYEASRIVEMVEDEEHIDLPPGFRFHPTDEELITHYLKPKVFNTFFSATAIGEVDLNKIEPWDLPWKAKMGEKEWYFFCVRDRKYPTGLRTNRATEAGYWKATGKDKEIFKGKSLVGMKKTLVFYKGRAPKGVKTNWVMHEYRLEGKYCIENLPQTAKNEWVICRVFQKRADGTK

The text below walks through data of publication PMC4081100.

The entries are a selection whose mix differs from that of the whole data set. For part of these data: At the low end of the ranking, values are background and their order means little. Some of the results follow. For part of these data: The exact form of the protein is not confirmed.

Regarding GCGTACGC, the binding signal with GST-NTL6(1-168) is -0.0563 E-score; with GST-ANAC019 NAC domain, 0.287 E-score; in the test with GST-ANAC055(1-171), 0.265 E-score; with GST-NTL8 NAC domain, -0.0138 E-score; with GST-VND3 NAC domain, 0.0861 E-score; in the test with GST-VND7 NAC domain, 0.346 E-score. The binding signal in test [1] is 0.134 E-score; in the test with GST-WRKY1(266-371), -0.156 E-score.
On to AGGAAATC, for which the binding signal in the test with GST-NTL6(1-168) was 0.102 E-score; with GST-ANAC019 NAC domain, -0.0325 E-score; in the test with GST-ANAC055(1-171) it was -0.0369 E-score; with GST-ATAF1 NAC domain, 0.0317 E-score; in test [2], -0.00696 E-score; with GST-NAP(1-166), -0.143 E-score. Moreover, the binding signal is 0.0183 E-score with GST-VND3 NAC domain, 0.0422 E-score in the test with GST-VND7 NAC domain, -0.0373 E-score in test [1] and -0.00653 E-score with GST-WRKY1(266-371).
For GGGGAAAC, the binding signal with GST-NTL6(1-168) was 0.17 E-score; in the test with GST-ANAC019 NAC domain, 0.152 E-score; with GST-ANAC055(1-171) it was 0.0243 E-score; with GST-ATAF1 NAC domain, -0.00334 E-score; with GST-NST2(1-184) it was 0.00636 E-score; with GST-VND3 NAC domain it was 0.00387 E-score. The binding signal with GST-VND7 NAC domain was -0.00353 E-score; in test [1] it was 0.0778 E-score; in the test with GST-WRKY1(266-371), -0.19 E-score.
Take ACGCAATG: the binding signal with GST-NTL6(1-168) amounted to 0.0271 E-score; with GST-ANAC019 NAC domain it was 0.32 E-score; in the test with GST-ATAF1 NAC domain, 0.162 E-score; with GST-VND3 NAC domain it was 0.314 E-score; with GST-VND7 NAC domain, 0.311 E-score; in [1], 0.0544 E-score. Further, the binding signal in the test with GST-WRKY1(266-371) came to 0.0356 E-score.
As for GGAGGGAA, the binding signal is 0.0257 E-score with GST-ANAC092(1-176); -0.0817 E-score with GST-ANAC055(1-171); 0.03 E-score with GST-ATAF1 NAC domain; -0.166 E-score in test [2]; 0.074 E-score in the test with GST-NAP(1-166); -0.0429 E-score with GST-NST2(1-184). The binding signal is -0.11 E-score in the test with GST-VND3 NAC domain, -0.0611 E-score in the test with GST-VND7 NAC domain, 0.106 E-score in test [1] and -0.11 E-score in the test with GST-WRKY1(266-371).
For the sequence AGGAAACC, the binding signal with GST-ANAC092(1-176) was 0.0188 E-score; with GST-ANAC019 NAC domain, 0.0445 E-score; with GST-ANAC055(1-171), -0.0505 E-score; with GST-ATAF1 NAC domain, -0.0359 E-score; with GST-NAP(1-166) it was -0.00742 E-score; in the test with GST-NST2(1-184) it was -0.00773 E-score. Further, the binding signal was 0.0389 E-score with GST-VND3 NAC domain, -0.154 E-score in the test with GST-VND7 NAC domain, -0.0105 E-score in test [1] and -0.181 E-score with GST-WRKY1(266-371).
For CTTTGACC, the binding signal is -0.0707 E-score with GST-NTL6(1-168); -0.0329 E-score with GST-ANAC019 NAC domain; -0.0345 E-score with GST-ANAC055(1-171); -0.0593 E-score with GST-ATAF1 NAC domain; -0.0981 E-score in [2]; -0.0305 E-score in the test with GST-NAP(1-166). The binding signal is 0.0033 E-score in the test with GST-NST2(1-184); 0.0261 E-score with GST-NTL8 NAC domain; 0.039 E-score with GST-VND3 NAC domain; -0.129 E-score in the test with GST-VND7 NAC domain; -0.0125 E-score in [1]; 0.488 E-score with GST-WRKY1(266-371).
